Results taken from US20240392031A1 (BICARA THERAPEUTICS, published 2024).

Target: human IL-12 receptor (hIL-12R), heterodimer of hIL-12Rβ1 and hIL-12Rβ2 (human, UniProt P42701 24-662; Q99665 24-862)
Test: cell-based or functional assay

- HEK IL-12 Reporter Assay (Ratio of EC50): 5000 ratio
- PSTAT (CD8) flow cytometry - percent reduction at 16.9 nM: 82.5%
B1: BCA313 (Fc-IL-12), non-targeting Fc-attenuated IL-12 fusion protein (hIL-12p40 E81K, K121E, K286E) (Fc fusion)
chain 1: [human IgG1 Fc with changes left out here]GGGGSGGGGSGGGGSIWELKKDVYVVELDWYPDAPGEMVVLTCDTPEEDGITWTLDQSSEVLGSGKTLTIQVKKFGDAGQYTCHKGGEVLSHSLLLLHKKEDGIWSTDILKDQEEPKNKTFLRCEAKNYSGRFTCWWLTTISTDLTFSVKSSRGSSDPQGVTCGAATLSAERVRGDNKEYEYSVECQEDSACPAAEESLPIEVMVDAVHKLKYENYTSSFFIRDIIKPDPPKNLQLKPLKNSRQVEVSWEYPDTWSTPHSYFSLTFCVQVQGKSKREKEDRVFTDKTSATVICRKNASISVRAQDRYYSSSWSEWASVPCS
chain 2: [human IgG1 Fc with changes left out here]GGGGSGGGGSGGGGSRNLPVATPDPGMFPCLHHSQNLLRAVSNMLQKARQTLEFYPCTSEEIDHEDITKDKTSTVEACLPLELTKNESCLNSRETSFITNGSCLASRKTSFMMALCLSSIYEDLKMYQVEFKTMNAKLLMDPKRQIFLDQNMLAVIDELMQALNFNSETVPQKSSLEEPDFYKTKIKLCILLHAFRIRAVTIDRVMSYLNAS
